# Data: PubChem BioAssay (NCATS)
# “And” between values parts separate entries of the source, which are not always exact repeats. Equal entries are not always repeated. The inconclusive results got no clear call from the source; some entries with a clear call stand among them for comparison. A potency beside an inconclusive call is a rough fit, not a confirmed value. The source made the active and inactive calls. Calls follow the shape of the dose curve; as a rule, active = well fitted curve in the direction sought with a large enough effect; inconclusive = small, poorly fitted or top-dose-only effect, or another doubt; inactive = no such curve, though single readings can be large; an effect the other way counts as inactive or inconclusive.
# Legend:
# [1] = P-glycoprotein substrates identified in KB-8-5-11 adenocarcinoma cell line, qHTS therapeutic library screen (AID 1346987); also: nearly all actives have a fitted effect of over 65% in size; as to activity change, negative = cytotoxicity: % is scaled to controls: 0 for no effect and ±100 for the full control effect
# Procedure, shortened: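 Compounds are pinned in dose-response onto KB-8-5-11 cells (500 cells/well, colchicine-free medium) and left 72 h at 37 degree C. CellTiter-Glo luminescence then yields AC50 values.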
# HEK293 = assay: Cytotoxic Profiling of Annotated Libraries Using Quantitative High-Throughput Screening (AID 1296008); details: Five cell lines viability, CellTiter-Glo ATP luminescence, 48-72 h; max response: active compounds read low; also: nearly all actives have a fitted effect of over 60% in size; as to max response: % is scaled to controls: 0 for no effect and ±100 for the full control effect
# Procedure, shortened: (§1)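 Compounds were pin-transferred onto cells and incubated 48 or 72 hr at 37 degree Celsius, 95% humidity. CellTiter-Glo was added, plates sat 10 min at room temperature, then ATP-coupled luminescence was imaged as the viability read-out.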
# HaCat = assay: as above; details: Five cell lines viability, CellTiter-Glo ATP luminescence, 48-72 h; max response: active compounds read low
# Procedure, shortened: as §1
# KB-3-1 = assay: as above; details: Five cell lines viability, CellTiter-Glo ATP luminescence, 48-72 h; max response: active compounds read low
# Procedure, shortened: as §1
# Hek293T = assay: Primary qHTS to identify gynecologic anti-cancer compounds using libraries of approved drugs and bioactive compounds (AID 1345084); details: Gynecologic cancer cell panel viability, ATPlite luminescence, 48 h, control line for the selectivity index; series mostly up to 57.5 µM; also: nearly all actives have a fitted effect of over 55% in size; as to activity change, negative = cytotoxicity: % is scaled to controls: 0 for no effect and ±100 for the full control effect
# Procedure, shortened: (§2)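 ATP-based viability (ATPlite), 1,000 cells/well, 16 h pre-incubation, 48 h compound at 37 C, 5% CO2, 15 min RT before read.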
# SKOV3 = assay: as above; details: Gynecologic cancer cell panel viability, ATPlite luminescence, 48 h; series mostly up to 57.5 µM
# Procedure, shortened: as §2
# [2] = Primary qHTS for inhibitors of nuclear receptor binding SET domain protein 2 (NSD2) in an isogenic RCH-ACV NSD2 p.E1099K mutant (9B) (AID 1645876); also: nearly all actives have a fitted effect of over 70% in size; as to activity change, negative = viability loss: % is scaled to controls: 0 for no effect and ±100 for the full control effect
# Tov112D = assay: Primary qHTS to identify gynecologic anti-cancer compounds using libraries of approved drugs and bioactive compounds (AID 1345084); details: Gynecologic cancer cell panel viability, ATPlite luminescence, 48 h; activity change, negative = cytotoxicity: at 57.5 µM (top of the series); also: nearly all actives have a fitted effect of over 55% in size
# Procedure, shortened: as §2
# [3] = Primary qHTS for inhibitors of nuclear receptor binding SET domain protein 2 (NSD2) in an RCH-ACV wild type WT cells (2C) (AID 1645877); details: activity change, negative = cell killing: at 44.9 µM (top of the series); also: nearly all actives have a fitted effect of over 70% in size
# PA-1 = assay: Primary qHTS to identify gynecologic anti-cancer compounds using libraries of approved drugs and bioactive compounds (AID 1345084); details: Gynecologic cancer cell panel viability, ATPlite luminescence, 48 h; series mostly up to 57.5 µM; also: nearly all actives have a fitted effect of over 55% in size
# Procedure, shortened: as §2
# C33A = assay: as above; details: Gynecologic cancer cell panel viability, ATPlite luminescence, 48 h; series mostly up to 57.5 µM
# Procedure, shortened: as §2
# CAOV3 = assay: as above; details: Gynecologic cancer cell panel viability, ATPlite luminescence, 48 h; series mostly up to 57.5 µM
# Procedure, shortened: as §2
# CASKI = assay: as above; details: Gynecologic cancer cell panel viability, ATPlite luminescence, 48 h; activity change, negative = cytotoxicity: at 57.5 µM (top of the series)
# Procedure, shortened: as §2
# Es-2 = assay: as above; details: Gynecologic cancer cell panel viability, ATPlite luminescence, 48 h; series mostly up to 57.5 µM
# Procedure, shortened: as §2
# HeLa = assay: as above; details: Gynecologic cancer cell panel viability, ATPlite luminescence, 48 h; series mostly up to 57.5 µM
# Procedure, shortened: as §2
# JEG-3 = assay: as above; details: Gynecologic cancer cell panel viability, ATPlite luminescence, 48 h; series mostly up to 57.5 µM
# Procedure, shortened: as §2
# Tov-21-G = assay: as above; details: Gynecologic cancer cell panel viability, ATPlite luminescence, 48 h; activity change, negative = cytotoxicity: at 57.5 µM (top of the series)
# Procedure, shortened: as §2
# [4] = test system: Zika virus NS2B-NS3 protease (unlinked complex); assay: Primary screen GU Rhodamine qHTS for Zika virus inhibitors: Unlinked NS2B-NS3 protease assay (AID 1347159); also: nearly all actives have a fitted effect of over 60% in size
# Procedure, shortened: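 Enzyme 25 nM in Tris-HCl pH 8.0 + 0.01% Tween 20; compounds up to 114 microM, 15 min RT dark; + Rhod110 substrate 1.5 microM; read t0 and 15 min; delta fluorescence → % inhibition → 4-parameter Hill fit.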
# OV90 = assay: Primary qHTS to identify gynecologic anti-cancer compounds using libraries of approved drugs and bioactive compounds (AID 1345084); details: Gynecologic cancer cell panel viability, ATPlite luminescence, 48 h; series mostly up to 57.5 µM; also: nearly all actives have a fitted effect of over 55% in size
# Procedure, shortened: as §2
# Potency is read from the fitted curve at half-maximal effect; tags tell the direction and shape of the fitted curve.
compound,measurement,setting,value
Cc1cc(F)ccc1[C@H]1C[C@@H](N2CCN3C(=O)CC[C@H]3C2)CCN1C(=O)N(C)[C@H](C)c1cc(C(F)(F)F)cc(C(F)(F)F)c1,Potency,[1],"inconclusive: 18.4 µM [inhibitor, single point]"
same,Potency,HEK293,"inconclusive: 29.1 µM [inhibitor, single point]"
same,Potency,HaCat,"inconclusive: 25.9 µM [inhibitor, single point]"
same,Potency,KB-3-1,"inconclusive: 23.1 µM [inhibitor, single point]"
same,Potency,Hek293T,"inconclusive: 39.8 µM [cytotoxic, single point]"
same,Potency,SKOV3,"inconclusive: 31.6 µM [rising, single point]"
N[C@@H](CSSC[C@H](N)C(=O)O)C(=O)O,Potency,[1],inactive
same,"activity change, negative = viability loss",[2],inactive: -6.57% [at 0.588 µM]
same,outcome,HEK293,inactive
same,outcome,HaCat,inactive
same,max response,KB-3-1,inactive: 4.84%
same,"activity change, negative = cytotoxicity",SKOV3,inactive: 0% [at 0.462 µM]
same,"activity change, negative = cytotoxicity",Tov112D,inactive: 1.24% [at 0.462 µM]
CN(C)c1cc2c(Nc3ccc4c(cnn4Cc4ccccc4)c3)ncnc2cn1,Potency,[1],"inconclusive: 20.6 µM [inhibitor, partial curve] and inconclusive: 29.1 µM [inhibitor, single point]"
same,Potency,[2],"inconclusive: 29.1 µM [inhibitor, single point]"
same,Potency,[3],"inconclusive: 23 µM [inhibitor, single point] and inconclusive: 29.1 µM [inhibitor, single point]"
same,Potency,HEK293,"inconclusive: 18.4 µM [inhibitor, single point]"
same,Potency,HaCat,"inconclusive: 0.366 µM [inhibitor, full curve]"
same,Potency,KB-3-1,"inconclusive: 29.1 µM [inhibitor, single point]"
same,Potency,PA-1,"inconclusive: 39.8 µM [cytotoxic, single point]"
COC(=O)C1=CO[C@@H](O[C@@H]2O[C@H](CO)[C@@H](O)[C@H](O)[C@H]2O)[C@H]2[C@@H]1C=C[C@]21C=C([C@H](C)OC(=O)/C=C/c2ccc(O)cc2)C(=O)O1,Potency,HEK293,active: 1.72 µM
same,Potency,HaCat,active: 3.85 µM
same,Potency,KB-3-1,"inconclusive: 6.11 µM [inhibitor, single point]"
same,Potency,C33A,"inconclusive: 8.91 µM [cytotoxic, partial curve, poor fit]"
same,Potency,CAOV3,"inconclusive: 10 µM [cytotoxic, single point]"
same,Potency,CASKI,"inconclusive: 12.6 µM [cytotoxic, single point]"
same,Potency,Es-2,"inconclusive: 10 µM [cytotoxic, single point]"
same,Potency,HeLa,"inconclusive: 12.6 µM [cytotoxic, single point]"
same,Potency,Hek293T,"inconclusive: 10 µM [cytotoxic, single point]"
same,Potency,JEG-3,"inconclusive: 11.2 µM [cytotoxic, single point]"
same,Potency,PA-1,active: 12.6 µM
same,Potency,SKOV3,active: 8.91 µM
same,Potency,Tov-21-G,"inconclusive: 8.91 µM [cytotoxic, single point]"
same,Potency,Tov112D,"inconclusive: 8.91 µM [cytotoxic, single point]"
C/C(=C/CO)CCC1C(C)CCC2C(C)(C)CCCC12C (configuration not stated),Potency,[4],"inconclusive: 7.94 µM [inhibitor, full curve]"
same,Potency,[2],inactive
same,Potency,HEK293,"inconclusive: 29.1 µM [inhibitor, single point]"
same,max response,HaCat,inactive: -18.8%
same,max response,KB-3-1,inactive: 6.99%
same,Potency,SKOV3,"inconclusive: 2.24 µM [rising, partial curve, poor fit]"
Cn1ncc(Cl)c1-c1cc(C(=O)NC(CN)Cc2ccc(F)c(F)c2)oc1Cl (configuration not stated),Potency,[2],active: 728 nM and active: 833 nM
same,Potency,HEK293,active: 0.231 µM
same,Potency,HaCat,"inconclusive: 25.9 µM [inhibitor, partial curve, poor fit]"
same,Potency,KB-3-1,"inconclusive: 18.4 µM [inhibitor, single point]"
same,Potency,C33A,active: 3.16 µM
same,Potency,CAOV3,"inconclusive: 15.8 µM [cytotoxic, partial curve]"
same,Potency,CASKI,"inconclusive: 35.5 µM [cytotoxic, single point]"
same,Potency,Hek293T,active: 0.794 µM
same,Potency,JEG-3,"inconclusive: 1.58 µM [cytotoxic, full curve]"
same,Potency,OV90,"inconclusive: 8.91 µM [cytotoxic, partial curve, poor fit]"
same,Potency,PA-1,"inconclusive: 11.2 µM [cytotoxic, partial curve, poor fit]"
same,Potency,SKOV3,"inconclusive: 8.91 µM [cytotoxic, partial curve, poor fit]"
same,Potency,Tov-21-G,"inconclusive: 0.631 µM [cytotoxic, partial curve, poor fit]"
CC(O)CCC1C(CO[C@@H]2O[C@H](CO)[C@@H](O)[C@H](O)[C@H]2O)CC(O)CC1(C)C (some centres not stated),max response,HEK293,inactive: 1.92%
same,max response,HaCat,inactive: -5.9%
same,max response,KB-3-1,inactive: 8.38%
same,Potency,SKOV3,inactive
